Results reported in PubChem BioAssay (NCATS).
The shares of active, inactive and inconclusive entries below differ from those in the screen. For part of these data: No potency is given beside an inconclusive call; the fits are too rough. The source made the active and inactive calls. Calls come from the whole dose curve; as a rule, active = well fitted curve in the direction sought with a large enough effect; inconclusive = small, poorly fitted or top-dose-only effect, or another doubt; inactive = no such curve, though single readings can be large; an effect the other way counts as inactive or inconclusive.

Columns and labels:
[1] = Primary qHTS for small molecule stabilizers of the endoplasmic reticulum resident proteome: Secreted ER Calcium Modulated Protein (SERCaMP) assay (AID 1508630); details: SH-SY5Y GLuc-SERCaMP (Gaussia luciferase released on ER calcium loss) secretion, thapsigargin, luminescence; activity change, negative = inhibition: at 38.4 µM (top of the series); note: % is set by controls: 0 for no effect and ±100 for the full control effect
Method in brief: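 GLuc-SERCaMP-expressing SH-SY5Y cells, pretreated 16 h with compound, are challenged with thapsigargin to empty ER calcium stores; after 4 h, coelenterazine is added directly to the medium and luminescence is imaged.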

[2] = Primary qHTS for inhibitors of nuclear receptor binding SET domain protein 2 (NSD2) in an isogenic RCH-ACV NSD2 p.E1099K mutant (9B) (AID 1645876); note: potency is the fitted concentration of half-maximal effect; nearly all actives have a fitted effect of over 70% in size
[3] = Primary qHTS for inhibitors of nuclear receptor binding SET domain protein 2 (NSD2) in an RCH-ACV wild type WT cells (2C) (AID 1645877); details: activity change, negative = cell killing: at 44.9 µM (top of the series); note: nearly all actives have a fitted effect of over 70% in size; note: potency is the fitted concentration of half-maximal effect
CRL-7250 = normal cell line; experiment: Cytotoxic Profiling of Annotated Libraries Using Quantitative High-Throughput Screening (AID 1296008); details: Five cell lines viability, CellTiter-Glo ATP luminescence, 48-72 h; max response: hits give low values; note: nearly all actives have a fitted effect of over 60% in size; note: potency is the fitted concentration of half-maximal effect
Method in brief: (§1)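 Cytotoxicity was measured as CellTiter-Glo ATP luminescence, read after 10 min at room temperature. Compound treatment of the cells lasted 48 or 72 hr at 37 degrees Celsius in a qHTS format.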

HEK293 = experiment: as above; details: Five cell lines viability, CellTiter-Glo ATP luminescence, 48-72 h; max response: hits give low values
Method in brief: as §1

CAOV3 = experiment: Primary qHTS to identify gynecologic anti-cancer compounds using libraries of approved drugs and bioactive compounds (AID 1345084); details: Gynecologic cancer cell panel viability, ATPlite luminescence, 48 h; series mostly up to 57.5 µM; note: nearly all actives have a fitted effect of over 55% in size; note: potency is the fitted concentration of half-maximal effect; for activity change, negative = cytotoxicity: % is set by controls: 0 for no effect and ±100 for the full control effect
Method in brief: (§2)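 Cells, 1,000 per well, plated 16 h, then exposed 48 h at 37 C to compounds. Viability by ATPlite luminescence after 15 min at room temperature.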

SKOV3 = experiment: as above; details: Gynecologic cancer cell panel viability, ATPlite luminescence, 48 h; series mostly up to 57.5 µM
Method in brief: as §2

[4] = P-glycoprotein substrates identified in KB-8-5-11 adenocarcinoma cell line, qHTS therapeutic library screen (AID 1346987); note: potency is the fitted concentration of half-maximal effect; nearly all actives have a fitted effect of over 65% in size
Method in brief: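 P-gp-mediated resistance screen: KB-8-5-11 cells treated 72 h with compounds in dose-response. CellTiter-Glo viability.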

Hek293T = experiment: Primary qHTS to identify gynecologic anti-cancer compounds using libraries of approved drugs and bioactive compounds (AID 1345084); details: Gynecologic cancer cell panel viability, ATPlite luminescence, 48 h, control line for the selectivity index; series mostly up to 57.5 µM; note: nearly all actives have a fitted effect of over 55% in size; note: potency is the fitted concentration of half-maximal effect; for activity change, negative = cytotoxicity: % is set by controls: 0 for no effect and ±100 for the full control effect
Method in brief: as §2

PA-1 = experiment: as above; details: Gynecologic cancer cell panel viability, ATPlite luminescence, 48 h; series mostly up to 57.5 µM
Method in brief: as §2

Tov-21-G = experiment: as above; details: Gynecologic cancer cell panel viability, ATPlite luminescence, 48 h; activity change, negative = cytotoxicity: at 57.5 µM (top of the series)
Method in brief: as §2

[5] = Primary fluorescence-based thiol-reactive (MSTI) qHTS assay for identification of artifact compounds. (AID 1845221); note: potency is the fitted concentration of half-maximal effect;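 note: thiol-reactive compounds lower the probe fluorescence signal; nearly all actives have a fitted effect of over 65% in size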
Method in brief: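 MSTI probe at 4 uM final in 2% DMSO/PBS pH 7.4; compounds, 1 h at room temperature in dark. Fluorescence Ex/Em 525/598 nm, normalised to Acetyl-MSTI and MSTI, fitted to 4-parameter Hill.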

CASKI = experiment: Primary qHTS to identify gynecologic anti-cancer compounds using libraries of approved drugs and bioactive compounds (AID 1345084); details: Gynecologic cancer cell panel viability, ATPlite luminescence, 48 h; activity change, negative = cytotoxicity: at 57.5 µM (top of the series); note: nearly all actives have a fitted effect of over 55% in size; note: potency is the fitted concentration of half-maximal effect; for activity change, negative = cytotoxicity: % is set by controls: 0 for no effect and ±100 for the full control effect
Method in brief: as §2

[6] = tested on: Zika virus NS2B-NS3 protease (unlinked complex); experiment: Primary screen GU Rhodamine qHTS for Zika virus inhibitors: Unlinked NS2B-NS3 protease assay (AID 1347159); note: nearly all actives have a fitted effect of over 60% in size; note: potency is the fitted concentration of half-maximal effect
Method in brief: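 Noncovalent NS2B hydrophilic domain–NS3 protease domain complex (25 nM) preincubated 15 min at room temperature with compounds (up to 114 microM) in 10 mM Tris-HCl pH 8.0, 0.01% Tween 20; 1.5 microM Rhodamine110 substrate added, fluorescence change over 15 min fitted to Hill equation.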

HeLa = experiment: Primary qHTS to identify gynecologic anti-cancer compounds using libraries of approved drugs and bioactive compounds (AID 1345084); details: Gynecologic cancer cell panel viability, ATPlite luminescence, 48 h; series mostly up to 57.5 µM; note: nearly all actives have a fitted effect of over 55% in size; note: potency is the fitted concentration of half-maximal effect
Method in brief: as §2

Es-2 = experiment: as above; details: Gynecologic cancer cell panel viability, ATPlite luminescence, 48 h; series mostly up to 57.5 µM
Method in brief: as §2

OV90 = experiment: as above; details: Gynecologic cancer cell panel viability, ATPlite luminescence, 48 h; series mostly up to 57.5 µM
Method in brief: as §2
Tags give direction and shape of the fitted curve.

In the case of CCC[C@H](N[C@@H](C)C(=O)N1[C@H](C(=O)O)C[C@@H]2CCCC[C@@H]21)C(=O)OCC, the Potency [1] is reported as “inactive”, the Potency [2] is reported as inconclusive [inhibitor, single point] and the Potency [3] is reported as inconclusive [inhibitor, single point]. For the same molecule, the Potency (CRL-7250) was inconclusive [inhibitor, single point], the Potency (HEK293) was inconclusive [inhibitor, single point] and the Potency (CAOV3) was “inactive”. For the same molecule, the Potency (SKOV3) was “inactive”.
In the case of CO[C@H]1C[C@@H]2CC[C@@H](C)[C@@](O)(O2)C(=O)C(=O)N2CCCC[C@H]2C(=O)O[C@H]([C@H](C)C[C@@H]2CC[C@H](n3cnnn3)[C@H](OC)C2)CC(=O)[C@H](C)/C=C(\C)[C@@H](O)[C@@H](OC)C(=O)[C@H](C)C[C@H](C)/C=C/C=C/C=C/1C, the Potency [4] is reported as inconclusive [inhibitor, single point], the Potency [2] is reported as inconclusive [inhibitor, partial curve] and the Potency [3] is reported as inconclusive [inhibitor, partial curve, poor fit]. For the same molecule, the Potency (CRL-7250) was inconclusive [inhibitor, full curve], the Potency (HEK293) was active: 0.0252 µM and the Potency (CAOV3) was “inactive”. The Potency (Hek293T) was inconclusive, the Potency (PA-1) was “inactive” and the Potency (Tov-21-G) was inconclusive.
In the case of C/C=C(\C)C(=O)OC1C2(O)CC3=C4CC(=O)OC(c5ccoc5)C4(C)CCC3C(C)(C2=O)C(C(OC(C)=O)C(=O)OC)C1(C)C (centres undefined), the Potency [2] is reported as inconclusive [inhibitor, single point], the Potency [5] is reported as “inactive” and the outcome (CRL-7250) is reported as “inactive”. The max response (HEK293) was inactive: -2.36%, the Potency (CASKI) was inconclusive [cytotoxic, single point] and the Potency (Tov-21-G) was “inactive”.
For Cc1nc(N2CCN(C(=O)c3ccco3)CC2)c2c3c(sc2n1)CCCC3, the Potency [4] was inconclusive [inhibitor, partial curve], the Potency [6] was inconclusive [inhibitor, partial curve] and the Potency [2] was inconclusive [inhibitor, single point]. The Potency [3] was inconclusive [inhibitor, single point], the max response (CRL-7250) was inactive: -5.8% and the Potency (HEK293) was inconclusive [inhibitor, single point]. The Potency (CASKI) was inconclusive [rising, single point] and the Potency (HeLa) was “inactive”.
In the case of C=C(C)[C@@H]1CC[C@]2(CO)CC[C@]3(C)[C@H](CC[C@@H]4[C@@]5(C)CC[C@H](O)C(C)(C)[C@@H]5CC[C@]43C)[C@@H]12, the Potency [6] is reported as inconclusive [inhibitor, partial curve], the Potency [3] is reported as “inactive” and the max response (CRL-7250) is reported as inactive: 1.98%. For the same molecule, the max response (HEK293) was inactive: 3.79%, the Potency (CASKI) was “inactive” and the Potency (HeLa) was “inactive”.
With Cc1ccc(Cl)c(Nc2ccccc2C(=O)O)c1Cl the Potency [1] was “inactive”, the Potency [2] was inconclusive [inhibitor, single point] and the Potency [3] was inconclusive [inhibitor, single point]. The max response (CRL-7250) was inactive: 2.33%, the outcome (HEK293) was “inactive” and the Potency (CASKI) was “inactive”. For the same molecule, the Potency (Es-2) was “inactive”.
For Cc1cc(OCCCS(C)(=O)=O)cc(C)c1-c1cccc(COc2ccc(C3=CC(=O)NS3=O)cc2)c1 (centres undefined), the Potency [6] was active: 3.55 µM, the Potency [2] was inconclusive [inhibitor, single point] and the Potency [3] was inconclusive [inhibitor, single point]. The Potency [5] was “inactive”, the max response (CRL-7250) was inactive: 3.79% and the Potency (HEK293) was inconclusive [inhibitor, partial curve, poor fit]. For the same molecule, the Potency (CASKI) was inconclusive [rising, single point], the Potency (HeLa) was inconclusive [cytotoxic, single point] and the Potency (Hek293T) was “inactive”. The Potency (OV90) was inconclusive [cytotoxic, partial curve, poor fit], the Potency (PA-1) was inconclusive [cytotoxic, full curve, poor fit] and the Potency (SKOV3) was “inactive”.
For CC1C(=O)CC2C3C(O)CC(C(=O)O)C12CC3(C)C (centres undefined), the Potency [2] was inconclusive [inhibitor, single point], the Potency [3] was inconclusive [inhibitor, single point] and the Potency [5] was inconclusive [inhibitor, full curve]. For the same molecule, the outcome (CRL-7250) was “inactive”, the outcome (HEK293) was “inactive” and the Potency (CAOV3) was “inactive”.
With CCNC(=O)N1CCCN(c2ccc(C(=O)NCCc3ccc(Cl)cc3Cl)cc2NC(=O)c2cccc(Cl)c2)CC1 the Potency [6] was “inactive”, the Potency [2] was inconclusive [inhibitor, single point] and the Potency [3] was inconclusive [inhibitor, single point]. For the same molecule, the max response (CRL-7250) was inactive: -3.91%, the Potency (HEK293) was inconclusive [inhibitor, single point] and the Potency (CAOV3) was “inactive”. For the same molecule, the Potency (Hek293T) was “inactive” and the Potency (SKOV3) was active: 1 µM.
